Experimental data: PMC4336329 (PLoS ONE, 2015)
Screen size: about 310,000 compounds; about 2,200 (0.71%) showed an effect of 50% or more. The effect is printed as a negative number. This is one part of the list.

Each compound was assayed against human ether-à-go-go-related gene (hERG) potassium channel (human, UniProt Q12809) (assay: primary screen, population patch clamp on CHO cells stably expressing hERG).
Chain of human ether-à-go-go-related gene (hERG) potassium channel (Q12809 whole entry, looked up): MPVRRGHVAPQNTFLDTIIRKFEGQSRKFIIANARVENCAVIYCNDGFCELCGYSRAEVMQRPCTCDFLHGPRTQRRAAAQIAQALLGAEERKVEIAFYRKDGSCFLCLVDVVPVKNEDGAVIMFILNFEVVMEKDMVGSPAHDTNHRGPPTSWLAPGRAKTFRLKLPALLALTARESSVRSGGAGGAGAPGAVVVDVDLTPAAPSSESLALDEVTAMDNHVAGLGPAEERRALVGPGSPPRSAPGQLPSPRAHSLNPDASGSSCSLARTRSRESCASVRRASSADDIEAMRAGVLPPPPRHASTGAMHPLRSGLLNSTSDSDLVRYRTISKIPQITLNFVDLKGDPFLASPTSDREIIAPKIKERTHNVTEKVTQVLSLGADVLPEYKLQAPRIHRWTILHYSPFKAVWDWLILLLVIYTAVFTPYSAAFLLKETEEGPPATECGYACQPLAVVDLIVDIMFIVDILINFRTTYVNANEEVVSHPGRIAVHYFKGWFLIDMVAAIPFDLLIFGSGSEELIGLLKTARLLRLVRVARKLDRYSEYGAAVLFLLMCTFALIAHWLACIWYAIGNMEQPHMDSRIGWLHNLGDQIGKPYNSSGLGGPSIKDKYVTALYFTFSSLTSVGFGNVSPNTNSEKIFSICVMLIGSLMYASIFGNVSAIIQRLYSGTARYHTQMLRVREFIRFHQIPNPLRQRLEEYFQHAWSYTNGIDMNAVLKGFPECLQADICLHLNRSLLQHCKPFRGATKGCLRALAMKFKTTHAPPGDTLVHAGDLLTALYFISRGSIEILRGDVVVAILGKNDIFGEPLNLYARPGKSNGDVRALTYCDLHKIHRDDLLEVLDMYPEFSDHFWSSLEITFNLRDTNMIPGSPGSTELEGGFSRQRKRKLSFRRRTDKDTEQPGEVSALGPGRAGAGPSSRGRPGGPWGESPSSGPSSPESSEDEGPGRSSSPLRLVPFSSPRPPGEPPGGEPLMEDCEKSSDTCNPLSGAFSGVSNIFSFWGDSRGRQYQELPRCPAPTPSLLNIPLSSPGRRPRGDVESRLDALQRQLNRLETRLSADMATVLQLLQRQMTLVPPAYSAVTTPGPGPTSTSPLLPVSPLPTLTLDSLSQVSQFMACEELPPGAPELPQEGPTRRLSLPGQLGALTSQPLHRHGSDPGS

Row | SMILES | hERG current change (%, negative = inhibition) at 1uM
1 | CCOC(=O)c1csc(COc2ccccc2Cl)n1 | -9.93%
2 | CC1=C(C(=O)OCC(C)C)C2(O)C(=O)c3ccccc3C2(O)N1 (centres unmarked) | 9.25%
3 | COCc1nnc(NC(=O)c2ccc(S(=O)(=O)N3CCOCC3)cc2)o1 | 7.52%
4 | COCCOC(=O)C1=C(C)N(c2ccccc2)C(=O)NC1c1cccc([N+](=O)[O-])c1 (centres unmarked) | 3.93%
5 | Cc1nnc(N2C(=O)C(=O)/C(=C(/O)c3ccc4c(c3)OCCO4)C2c2ccc(F)cc2)s1 (centres unmarked) | 13.2%
6 | COc1ccc(NC(=O)CCC(=O)c2cccs2)c(OC)c1 | 12.5%
7 | O=C(Nc1ccc(F)cc1F)c1ccc2ncsc2c1 | 13.7%
8 | COc1ccc(-c2csc3ncnc(N4CCN(c5ccccc5[N+](=O)[O-])CC4)c23)cc1 | 13.2%
9 | COc1ccc(NC(=O)[C@H](COCc2ccccc2)NC(=O)OC(C)(C)C)cc1 | 5.44%
10 | Cc1onc(-c2c(F)cccc2Cl)c1C(=O)NC1CCCCCC1 | 10.3%
11 | N#Cc1c(NC(=O)CCN2C(=O)c3ccccc3C2=O)oc(-c2ccccc2)c1-c1ccccc1 | 12.4%
12 | CC(C)n1c(Sc2nccn2C)nc2c1c(=O)n(C)c(=O)n2C | 1.05%
13 | Cc1cccc(C)c1NC(=O)CN1N=NC2C(=O)N(c3cccc(Cl)c3)C(=O)C21 (centres unmarked) | 2.39%
14 | OCCC1CN(Cc2cccc3nonc23)CCN1C1CCCCC1 (centres unmarked) | 20%
15 | COc1ccccc1CC(=O)Nc1ccccc1O | 18.1%
16 | COc1ccc(NC(=O)COC(=O)c2ccc(-n3cnnn3)cc2)c([N+](=O)[O-])c1 | 6.59%
17 | Cc1cc(C=C2C(=O)c3ccccc3C2=O)c(C)n1-c1ccc(C(=O)O)cc1 | 6.32%
18 | COc1ccc(NC(=O)COC(=O)Cc2c(F)cccc2Cl)cc1 | 14.1%
19 | CC(=O)CSc1nnc(Cc2ccc([N+](=O)[O-])cc2)o1 | 7.03%
20 | CC(NC(=O)CCCC1CCCCC1)c1ccc(S(N)(=O)=O)cc1 (centres unmarked) | 13.7%
21 | CN=c1scc(-c2ccccc2F)n1/N=C(\C)c1cccnc1 | 7.54%
22 | COc1ccc2cc3cc(C(=O)NCCN4CCN(c5ccccc5F)CC4)oc3nc2c1 | 4.99%
23 | CC(=O)N(CCc1ccccc1C)Cc1cc2cc3c(cc2[nH]c1=O)OCO3 | 10.1%

Row | SMILES | hERG current change (%, negative = inhibition) at 1uM
24 | CCOC(=O)[C@H]1[C@H]2COc3ccc(Cl)cc3[C@@H]2N2C(=O)c3cc(Br)ccc3NC(=O)[C@@]12C | 7.77%
25 | Cc1ccc(NC(=O)CSc2n[nH]c(-c3ccco3)n2)c(C)c1 | 4.49%
26 | CCC(=O)N(CCC(c1ccc(C)cc1)c1ccco1)Cc1ccco1 (centres unmarked) | 7.84%
27 | O=C1CCCc2ccccc2N1Cc1c(Cl)cccc1Cl | 4.79%
28 | Cc1cccc(-c2nc3ccccc3c3nncn23)c1 | 4.02%
29 | Cc1ccc(/C=C/C(=O)OCc2nc(N)nc(Nc3ccccc3C)n2)o1 | 10.5%
30 | O=C(Nc1c(C(=O)NCc2ccco2)cnn1-c1ccccc1)c1ccc(F)cc1 | 11.4%
31 | CCn1cc(C(=O)NC(=S)Nc2sc3c(c2C(=O)OC)CCCCCC3)cn1 | 16.2%
32 | CCOC(=O)c1ccc(NC(=S)NCCCN2CCCCC2)cc1 | -5.8%
33 | CCOc1ccc(/C=N/NC(=O)c2nnn(-c3nonc3N)c2-c2cccs2)cc1 | 14.2%
34 | CCC(=O)Nc1ccc(N/C(N)=N/c2nc(C)cc(C)n2)cc1 | 5.28%
35 | NC(=O)c1ccc(C23CC4CC(CC(C4)C2)C3)o1 | 10.8%
36 | Cc1oc(-c2ccccc2)nc1C(=O)Nc1nccs1 | 15.7%
37 | NC(=NCCc1ccc(Cl)cc1)NS(=O)(=O)c1ccccc1 | 9.74%
38 | Cc1c(Cl)cccc1NC(=O)CCN1CCCCCC1 | 9.3%
39 | CS(=O)(=O)N(CC(=O)NCC1CCCO1)c1cccc([N+](=O)[O-])c1 (centres unmarked) | 11.6%
40 | CC(C)c1ccc(C(=O)CC2(O)C(=O)N(CN3CCOCC3)c3ccccc32)cc1 (centres unmarked) | 6.82%
41 | O=C1C=C(c2ccccc2)OC2(CCCC2)O1 | -20.8%
42 | Cc1csc2nc(COC(=O)c3ccc(Cl)c([N+](=O)[O-])c3)cc(=O)n12 | -11.2%
43 | Cc1cc(C)c2nc(SC(C)C#N)cc(C)c2c1 (centres unmarked) | 12%
44 | CCOc1ccccc1N1C(=O)CC(N(O)c2ccccc2)C1=O (centres unmarked) | 12.7%
45 | Cc1ccc(S(=O)(=O)CC(=O)c2ccc3c(c2)OCCO3)cc1 | 6.35%
46 | O=C(O)CC1(CC(=O)Nc2cccc(C(F)(F)F)c2)CCCC1 | 10%

Row | SMILES | hERG current change (%, negative = inhibition) at 1uM
47 | O=[N+]([O-])c1cnn(-c2nc(-c3ccco3)cc(C(F)(F)F)n2)c1 | 4.06%
48 | CN(C)c1ccc(-c2nc3ccccn3c2/N=C/c2ccc(Br)cc2)cc1 | 13.2%
49 | NC(=O)c1ccc(Sc2nnc(-c3cccs3)n2CC2CCCO2)c([N+](=O)[O-])c1 (centres unmarked) | 8.36%
50 | CCCN(CC(=O)Nc1ccc(F)c(F)c1F)CC(=O)Nc1c(C)n(C)n(-c2ccccc2)c1=O | 5.46%
51 | CC1CCCN(C(=O)CNC(=O)Cn2ccc3ccccc3c2=O)C1 (centres unmarked) | 0.263%
52 | Cn1cc(CN2CCC(N3CCNC(=O)CC3)CC2)c(-c2ccccc2F)n1 | 8.86%
53 | O=[N+]([O-])c1ccc(C(=S)N2CCCC2)cc1 | 7.25%
54 | COc1cc(NC(=O)c2c(F)cccc2F)nc(OC)n1 | 12.4%
55 | CC1(C)Nc2ccc(O)cc2-c2c1ssc2=S | 3.69%
56 | O=C1C2C3C=CC(C3)C2C(=O)N1Nc1ccccc1 (centres unmarked) | 14.2%
57 | Cc1ccc(C(=O)N2CCN(c3ccc(NC(=S)NC(=O)c4cccs4)cc3)CC2)cc1 | 4.71%
58 | O=C(c1ccc(F)cc1)N(c1ccccn1)C1CCCCC1 | -2.72%
59 | CCN1CCN(c2ccc(S(=O)(=O)N3CCOCC3)cc2NC(=O)c2ccccc2SC)CC1 | -19.8%
60 | Cc1ccc(S(=O)(=O)Nc2cccc(-n3cnnn3)c2)cc1C(=O)O | 2.49%
61 | CCOc1cc(Cl)c(S(=O)(=O)NCCCN2CCOCC2)cc1Cl | -16%
62 | COc1cccc(C2=CC(=O)CC(C)(C)C2)n1 | 12.7%
63 | O=C(O)CCCCCNS(=O)(=O)/C=C/c1ccccc1 | 11.2%
64 | Cn1c(=O)c2c(nc(Sc3ncnn3CC(=O)N3CCOCC3)n2C)n(C)c1=O | 11.2%
65 | Cc1csc(N(C)C(=O)CSc2nnc(COc3ccccc3C)o2)n1 | 6.62%
66 | O=S(=O)(NCC(c1cccnc1)N1CCN(c2ccc(F)cc2)CC1)c1ccc(F)cc1 (centres unmarked) | -31.3%
67 | CCn1nnc(NC(=O)COc2ccc(C3CCCCC3)cc2)n1 | 7.38%
68 | CCCC1c2ccsc2CCN1C(=S)NC (centres unmarked) | 8.22%
69 | O=S(=O)(NCCc1cn2ccccc2n1)c1ccc(-c2ccccc2)cc1 | -11.6%

Row | SMILES | hERG current change (%, negative = inhibition) at 1uM
70 | COc1cc(Cl)ccc1OCc1cc(C(=O)N(C)CC2CCCCO2)no1 (centres unmarked) | 2.24%
71 | CCOC(=O)C(Cc1ccc(Cl)cc1Cl)c1ccno1 (centres unmarked) | 11.3%
72 | CC(=O)Nc1ccc2c(c1)CCCC2=O | 13.1%
73 | Cc1cccc(Oc2ncnc3onc(C)c23)c1C | 15.8%
74 | NS(=O)(=O)c1cccc(NC(=O)CSc2nn(-c3ccccc3)c(=S)s2)c1 | 4.06%
75 | CCCCOC(=O)C(C)Sc1n[nH]c(=O)[nH]c1=O (centres unmarked) | 16.3%
76 | N#CC12COC3(CCCCC3C1(C#N)C#N)OC2=N (centres unmarked) | 8.2%
77 | C/C(=N/N1CCN(c2ccccc2)CC1)c1cccc([N+](=O)[O-])c1 | 8.81%
78 | COc1ccc(CCNC(=O)CSc2nc3[nH]c(=O)cc(O)c3s2)cc1 | 5.25%
79 | CN1CCN(C(=O)OC2c3nccnc3C(=O)N2c2ccc(Cl)cn2)CC1 (centres unmarked) | 14.1%
80 | O=C(CCCSc1nc2ccccc2s1)Nc1nccs1 | -2.02%
81 | O=C(O)CNC(=O)c1ccccc1F | 0.871%
82 | COC(=O)/C=C1\SC(=Nc2ccccc2)NC1=O | 14.9%
83 | COc1cccc(CNC(=O)c2cccnc2Sc2ccccc2)c1 | 14.2%
84 | COC(=O)c1ccccc1NC(=O)CN(c1cc(OC)ccc1OC)S(C)(=O)=O | 0.279%
85 | CN(CCC#N)C(=O)COC(=O)c1ccc2[nH]c3c(c2c1)CCCC3 | 14.9%
86 | CCN(CC)S(=O)(=O)c1ccc2nc(SC)sc2c1 | 13.2%
87 | C#CCOCCOCCOCCNc1nc(N2CCOCC2)nc(N2CCN(C(=O)CCCCCCCCCCNC(=O)[C@@H](CCC(=O)O)n3cc(CCCCCN)nn3)CC2)n1 | 14.2%
88 | CCOC(=O)N1CCC(N2CC34C=CC(O3)C(C(=O)Nc3ccc(F)cc3)C4C2=O)CC1 (centres unmarked) | 0.228%
89 | COc1ccc(Cc2noc(CN(C)C3CC(C)(C)NC(C)(C)C3)n2)cc1OC | 13.6%
